This sample is rich in variants without activity.
B1: TPR 5TU (parent)
chain: GGAUCUUCUCGAUCUAACAAAAAAGACAAAUCUGCCACAAAGCUUGAGAGCAUCUUCGGAUGCAGAGGCGGCAGCCUUCGGUGGCGCGAUAGCGCCAACGUUCUCAACUAUGACACGCAAAACGCGUGCUCCGUUGAAUGGAGUUUAUCAUG

Variants of: B1
Experiment: polymerase ribozyme fitness, log enrichment relative to wild type (log ratio); higher = more active; in vitro selection for triplet polymerase activity
Method in brief: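 One round of in vitro selection, in triplicate, was applied to PCR-built, transcribed mutant libraries of each subunit of a heterodimeric triplet polymerase ribozyme. The steps were annealing with a biotinylated primer, partner subunit and triplets, incubation frozen at −7 °C, gel excision of extended constructs, streptavidin-bead capture and RT-PCR. Fitness is the logarithm, base 2, of genotype enrichment over wild-type enrichment from inverse-variance-weighted replicate averages of Illumina-sequenced inputs and outputs, keeping genotypes with ≥10 input reads and ≥1 read per output.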

| Variant | polymerase ribozyme fitness (log ratio) |
| --- | --- |
| GGAUCUUCUCGAUCUAACAAGAAAGACAAAUCUGCCACAAAGCUUGAGAGCAUCUUCGGAUGCAGAGGCGGCAGCCUUCGGUGGCGCGAUAGCGCCAACGUUCUCAACUAUGACACGCAAAACGCGUGCUCCGUUGAAUGGAGAUUAUCAUG [A21G U144A] | 0.357 |
| GGAUCUUCUCGAUCUAACAAUACAGACAAAUCUGCCAAAAAGCUUGAGAGCAUCUUCGGAUGCAGAGGCGGCAGCCUUCGGUGGCGCGAUAGCGCCAAGGUUCUCAACUAUGACACGCAAAACGCGUGCUCCGUUGAAUGGCGUUUAUCAUG [A21U A23C C38A C99G A142C] | ≤ -4.2 |
| GGAUCUUCUCGAUCUAACAAUAGAGGCAAAUCUGCCACAAAGCUUGAGAGCAUCUUCGGAUGCAGAGGCGGCAGCCUUCGGUGUCUCGAUAGCGCCAACGUUCUCAACUAUGACACGCAAAACGCGUGCUCCGUUUAAUGGAGUUUAGCAUG [A21U A23G A26G G84U G86U G136U U148G] | ≤ -4.2 |
| GGAUCUUCUCGAUCUAACAAUAGAGAUAAAUCUGCCACAAAGCUUGAGAGCAUCUUCGGAUCCAGAGGCGGCAGCCUUCGGUGGCGCGAUAGGGCCAACGUUCUCAACUAUGACACGCAAAACGCGUGCUCCGUUGAAUGGAGUUUAGCAUG [A21U A23G C27U G62C C93G U148G] | ≤ -4.2 |
| GGAUCUUCUCGAUCUAACAAUAUCGACAAAUCUGCCACAAAGCUUGAGAGCAUUUUCGGAUGCAGAGGCGGCAGCCUUCGAUGGUGCGAUAGCGCCAACGUUCUCAACUAUGACACGCAAAACGCGUGCUCCGUUGAAUGGAGUUUAUCAUG [A21U A23U A24C C54U G81A C85U] | ≤ -4.2 |
| GGAUCUUCUCGAUCUAACAAUAUAGACACAUCUGGCACAAAGCUUGAAAGCAUCUUCGGAUGCAGAGGCGGCAGCCUUCGGUGGCGCGAUAGCGCCAACGUUCUCAACUAUGACACGCAAAACGCGUGCUCCGUUGAAUGGAGUUUAUCAUG [A21U A23U A29C C35G G48A] | ≤ -4.2 |
| GGAUCUUCUCGAUCUAACAAUAUAGACAAAUCUGCCACAAAGCUUGAGAGCAUUUUCAGAUGCAGAGGCGGCAGCCUUCGGUGGCGCGAUAUCGCCAACGUUCUCAACUAUGACACGCAAAACGCGUGCUCCGUUGAAUGGAGUUUAUCAUG [A21U A23U C54U G58A G92U] | ≤ -4.2 |
| GGAUCUUCUCGAUCUAACAAUAUAGACAAAUCUGCCACAAAGCUUGAGAGCAUCUUCGCAUGCAGAGGCGGCAGCCAUCGGUGGCGCGAUAGCGCCAAGGUUCUCAACUAUGACACACAAAACGCGUGCUCCGUUGUAAGGAGUUUAUCAUG [A21U A23U G59C U77A C99G G117A A137U U139A] | ≤ -4.2 |
| GGAUCUUCUCGAUCUAACAAUAACGUCAAAUCUGCCACAAAGCGUGAGAGCAUCUUCGGAUGCAGAGGCGGCAGCCUUCGGUGGCGCGUUGGCGCCAACGUUCUCAACUAUGACACGCAAAACGCGUUCUCCGUUGAAUCGAGUAUAUCAUG [A21U A24C A26U U44G A89U A91G G128U G140C U145A] | ≤ -4.2 |
| GGAUCUUCUCGAUCUAACAAUAACGACAAAUCUGCCACAACGCUUGGGAGCAUCUUCGGAUGAAGAGACGGCAGCCUUCGGUGGCGCGAUAGCGCCAACGUUCUCAACUAUGACACGCAAAACGCGUGCUCCGUUGAAUGGAGUGUAUCAUG [A21U A24C A41C A47G C63A G68A U145G] | ≤ -4.2 |
| GGAUCUUCUCGAUCUAACAAUAAGGACAAAUCUGCCCCAAAGCUUGAGAGCAUCUUCGGAAGCAGAGGCGGCAGCCUUCGGUGGCGUGAUAGCGCCAACGUUCUCAACUAUGACACGCAAAACGCGUGCUCCGUUGAAUGGAGUUUAUCAUG [A21U A24G A37C U61A C87U] | ≤ -4.2 |
| GGAUCUUCUCGAUCUAACAAUAAUGACGAAUCUGCCACAAAGCUUGAGACCAUUUUAGGAUGCAGAGGCGGCAGCCUUCGGUGGCGCGAUAGCCCUAACGUUCUCAACUAUGACACGCAAAACGCGUGCUCCGUUGAAUGGAGUUUAUCAUG [A21U A24U A28G G50C C54U C57A G94C C96U] | ≤ -4.2 |
| GGAUCUUCUCGAUCUAACAAUAAUGACAAAUCUGCCACAAAGCUUGAGAGCGUACUCCGAUGCAGAGGCGGCAGCCUUCGGUGGCGCUAUAGAGCCAACGUUAUCAACUAUGACACGCAAAACGCGUGCUCCGUUGAAUGGAGUUUAUCAUG [A21U A24U A52G C54A U55C G58C G88U C93A C103A] | ≤ -4.2 |
| GGAUCUUCUCGAUCUAACAAUAAAGCCAAAUCUGCCACAAAGCUCGAGAGCAUCUUCAGAUACAGAGGCGGCAGCCCUCGGUGGUGCGAUAGCGCCAACGUUCUCAACUAUGACACGCAAAGCGCGUGCUCCGUUGAAUGGAGUUUAUCAUG [A21U A26C U45C G58A G62A U77C C85U A122G] | ≤ -4.2 |
| GGAUCUUCUCGAUCUAACAAUAAAGCCAAAUCUGCCACAAAGCUUGAGAGCAUCAUCGGAUGCAGAGGCGGCGGCCUUCGGUGGGGCGAUAGCGCCAACGUUCUCAACUAUGACACGCAAAACGCGAGCUCCGUUGAAUGGAGUUUAUCAUG [A21U A26C U55A A73G C85G U127A] | ≤ -4.2 |
| GGAUCUUCUCGAUCUAACAAUAAAGUCAAAUCUGCCAGAAAGCUUGAGAGCAUCUUCGGAUGCAGAGGCGGCAGCCUUCGGUAGCGCGAUAGCGCCAACGUUCUCAACUAUGAAACGCAAAACGCGUGCUCCGUUGAAUGGAGUUUAUCAUG [A21U A26U C38G G83A C114A] | ≤ -4.2 |
| GGAUCUUCUCGAUCUAACAAUAAAGUCAAAUCUGCCACAAAGCUUGAGAGCAUCUUUGGAUGCAGAGGCGGCAGCCUUCGGUGUCGCGAUAGCGUCUAAGUUCUCAACUAUGACACGCAAAACGCGUGCUCCGUUGAAUGGAGGUUAUCAUG [A21U A26U C57U G84U C95U A97U C99A U144G] | ≤ -4.2 |
| GGAUCUUCUCGAUCUAACAAUAAAGUCAAAUCUGCCACAAAGCUUGAGAGCAUCAUCAGAUGCAGAGGCGGCAGCCUUCGGUGGCGCGAUCGCGCCAACGUUCUCAACUAUGACACGGAAAACGCGUGCUCCGUUGAAUGGAGUUUAUCAUG [A21U A26U U55A G58A A91C C118G] | ≤ -4.2 |
| GGAUCUUCUCGAUCUAACAAUAAAGACCAAUCUGCCACAUAGCUUGAGAGCAUCUUCGGUUGAAGCGGCGGCAGCCUUCGGUGGCGCGAUAGCUCCAACGUUCUCAACUAUGACAUGCAAAACGCGUGCUCCCUUGAAUCGAGUUUAUCAUG [A21U A28C A40U A60U C63A A66C G94U C116U G133C G140C] | ≤ -4.2 |

Reference: the RNAGym collection of RNA variant scans (doi:10.1073/pnas.2313332121)
